Reference: a collection of fitness landscapes (doi:10.1016/j.celrep.2020.107928)
Whole data set: some 81,000 sequences, median “one-hybrid fitness for binding parS DNA” near -0.17, cut for the highest 2% near 0.51. Some of the results follow.

B1: Caulobacter ParB omega fusion; a variant is named by its letters at X, in order, B8GW30 (parent)
chain: MESVVVGEPGMSEGRRGLGRGLSALLGEVDAAPAQAPGEQLGGSREAPIEILQRNPDQPRRTFREEDLEDLSNSIREKGVLQPILVRPSPDTAGEYQIVAGERAWRAAQRAGLKTVPIMVRELDDLAVLEIGIIENVQRADLNVLEEALSYKVLMEKFERTQENIAQTIGKSXSHVANXMRLLXLPDEVQSYLVSGELTAXHARAIAAAADPVALAKQIIEGGLSVRETEALARKAPNLSAGKSKGGRPPRVKDTDTQALESDLSSVLGLDVSIDHRGSTGTLTITYATLEQLDDLCNRLTRGI

Variants of: B1
Test: one-hybrid fitness for binding parS DNA (scaled: cognate 1, non-cognate 0); higher = stronger binding
Details: with parS DNA site
How it was run: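 Fitness here means the log change in variant-to-wild-type read ratio between plasmids sequenced before and after selection. That scale was set so cognate equals 1 and non-cognate equals 0. The selection was a bacterial one-hybrid screen of Caulobacter ParB libraries, four specificity codons randomised, in E. coli USO carrying a HIS3 reporter with the site 19 bp from the promoter, grown 48 hours at 37°C on M9-minus-histidine with 0.1 mM IPTG and 5 mM 3-AT.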

| Variant | one-hybrid fitness for binding parS DNA |
| --- | --- |
| KDTK | ≤ 0.2 |
| QKVY | ≤ 0.2 |
| QSLR | ≤ 0.2 |
| RICF | 0.282 |
| YTVG | ≤ 0.2 |
| AREQ | ≤ 0.2 |
| SSCS | ≤ 0.2 |
| EDQD | ≤ 0.2 |
| LITC | ≤ 0.2 |
| KNNS | ≤ 0.2 |
| HTLS | ≤ 0.2 |
| KKWR | ≤ 0.2 |
| ALAV | ≤ 0.2 |
| QRIN | ≤ 0.2 |
| NYQT | ≤ 0.2 |
| MPHS | ≤ 0.2 |
| PQNY | ≤ 0.2 |
| ILKS | ≤ 0.2 |
| GTSV | ≤ 0.2 |
| DMFV | ≤ 0.2 |
| MSVI | ≤ 0.2 |
| YCYT | ≤ 0.2 |
| DIPR | ≤ 0.2 |
| TCFF | ≤ 0.2 |

| Variant | one-hybrid fitness for binding parS DNA |
| --- | --- |
| EASG | ≤ 0.2 |
| APTI | ≤ 0.2 |
| RFRR | ≤ 0.2 |
| LLYA | ≤ 0.2 |
| YSWS | ≤ 0.2 |
| FWKG | ≤ 0.2 |
| QNYR | ≤ 0.2 |
| SSEG | ≤ 0.2 |
| KDSG | ≤ 0.2 |
| CVIG | ≤ 0.2 |
| VKSK | ≤ 0.2 |
| KHSN | ≤ 0.2 |
| PRWG | ≤ 0.2 |
| LYAI | ≤ 0.2 |
| RPNI | ≤ 0.2 |
| WWDS | ≤ 0.2 |
| YSCG | ≤ 0.2 |
| AFAR | ≤ 0.2 |
| RTYL | ≤ 0.2 |
| FWLC | ≤ 0.2 |
| LCQR | ≤ 0.2 |
| KENE | ≤ 0.2 |
| QLIM | ≤ 0.2 |
| LLHD | ≤ 0.2 |

| Variant | one-hybrid fitness for binding parS DNA |
| --- | --- |
| AASI | ≤ 0.2 |
| LNHF | ≤ 0.2 |
| QAEC | ≤ 0.2 |
| WHQI | ≤ 0.2 |
| WDIS | ≤ 0.2 |
| TATR | ≤ 0.2 |
| PEEA | ≤ 0.2 |
| HSGE | ≤ 0.2 |
| RCMG | 1.03 |
| PPWK | ≤ 0.2 |
| HFRC | ≤ 0.2 |
| STTC | ≤ 0.2 |
| VAYN | ≤ 0.2 |
| PAMT | ≤ 0.2 |
| QPQM | ≤ 0.2 |
| MYRG | ≤ 0.2 |
| YDME | ≤ 0.2 |
| GWVW | ≤ 0.2 |
| HLKF | ≤ 0.2 |
| IWWV | ≤ 0.2 |
| TMKY | ≤ 0.2 |
| QNSG | ≤ 0.2 |
| KEDT | ≤ 0.2 |
| PLKN | ≤ 0.2 |

| Variant | one-hybrid fitness for binding parS DNA |
| --- | --- |
| RSMY | 0.434 |
| KSAG | ≤ 0.2 |
| KSAC | ≤ 0.2 |
| QRSH | ≤ 0.2 |
| VWGA | ≤ 0.2 |
| DLGT | ≤ 0.2 |
| RPYT | ≤ 0.2 |
| PPKS | ≤ 0.2 |
| SDML | ≤ 0.2 |
| NCYR | ≤ 0.2 |
| RASI | ≤ 0.2 |
| IAMG | ≤ 0.2 |
| VRNE | ≤ 0.2 |
| LEMT | ≤ 0.2 |
| SHEY | ≤ 0.2 |
| WYTV | ≤ 0.2 |
| ACTA | ≤ 0.2 |
| QTSL | ≤ 0.2 |
| RHGK | ≤ 0.2 |
| QMYC | ≤ 0.2 |
| PWEG | ≤ 0.2 |
| ERFN | ≤ 0.2 |
| SSMK | ≤ 0.2 |
| HYAF | ≤ 0.2 |

| Variant | one-hybrid fitness for binding parS DNA |
| --- | --- |
| SDTA | ≤ 0.2 |
| TQVL | ≤ 0.2 |
| ALYA | ≤ 0.2 |
| STDT | ≤ 0.2 |
| RVPY | ≤ 0.2 |
| KAHS | ≤ 0.2 |
| YHIG | ≤ 0.2 |
| WTGV | ≤ 0.2 |
| NTFG | ≤ 0.2 |
| IGMG | ≤ 0.2 |
| DAVE | ≤ 0.2 |
| TPGG | ≤ 0.2 |
| GMLY | ≤ 0.2 |
| QVFN | ≤ 0.2 |
| KLCY | ≤ 0.2 |
| QYTP | ≤ 0.2 |
| SHMA | ≤ 0.2 |
| DRIL | ≤ 0.2 |
| ETAC | ≤ 0.2 |
| PYDT | ≤ 0.2 |
| GSAV | ≤ 0.2 |
| PDTV | ≤ 0.2 |
| TQKM | ≤ 0.2 |
| LRGT | ≤ 0.2 |

| Variant | one-hybrid fitness for binding parS DNA |
| --- | --- |
| KDIE | ≤ 0.2 |
| PKAI | ≤ 0.2 |
| YSSN | ≤ 0.2 |
| CNAL | ≤ 0.2 |
| AAVL | ≤ 0.2 |
| IAHR | ≤ 0.2 |
| TPAN | ≤ 0.2 |
| MGQR | ≤ 0.2 |
| TDSP | ≤ 0.2 |
| NMMG | ≤ 0.2 |
| TNQI | ≤ 0.2 |
| ASHM | ≤ 0.2 |
| PLGL | ≤ 0.2 |
| QSMF | ≤ 0.2 |
| VSHC | ≤ 0.2 |
| YKDY | ≤ 0.2 |
| DRCA | ≤ 0.2 |
| CSMF | ≤ 0.2 |
| KAHL | ≤ 0.2 |
| RWLA | 0.384 |
| VGCD | ≤ 0.2 |
| RIFD | ≤ 0.2 |
| SCYC | ≤ 0.2 |
| QQAN | ≤ 0.2 |

| Variant | one-hybrid fitness for binding parS DNA |
| --- | --- |
| DFMS | ≤ 0.2 |
| CIQR | ≤ 0.2 |
| FKRH | ≤ 0.2 |
| LCSV | ≤ 0.2 |
| ELYN | ≤ 0.2 |
| DGHS | ≤ 0.2 |
| RNLH | ≤ 0.2 |
| HKHR | ≤ 0.2 |
| WRQY | ≤ 0.2 |
| PQPQ | ≤ 0.2 |
| YNID | ≤ 0.2 |
| YPDS | ≤ 0.2 |
| CNNT | ≤ 0.2 |
| PFSY | ≤ 0.2 |
| TKGG | ≤ 0.2 |
| FITG | ≤ 0.2 |
| TNGI | ≤ 0.2 |
| IQSC | ≤ 0.2 |
| NVAR | ≤ 0.2 |
| SATP | ≤ 0.2 |
| RYPC | 0.477 |
| DCNA | ≤ 0.2 |
| INAT | ≤ 0.2 |
| WICR | ≤ 0.2 |

| Variant | one-hybrid fitness for binding parS DNA |
| --- | --- |
| FLPV | ≤ 0.2 |
| FWNS | ≤ 0.2 |
| VDQS | ≤ 0.2 |
| PKVC | ≤ 0.2 |
| RKLR | ≤ 0.2 |
| QPTQ | ≤ 0.2 |
| CQAF | ≤ 0.2 |
| TYWR | ≤ 0.2 |
| TGEL | ≤ 0.2 |
| RNVT | 0.514 |
| QNKC | ≤ 0.2 |
| IERT | ≤ 0.2 |
| ESRI | ≤ 0.2 |
| RMCF | 0.217 |
| TMYC | ≤ 0.2 |
| ETVG | ≤ 0.2 |
| TPGI | ≤ 0.2 |
| IKTH | ≤ 0.2 |
| CAPF | ≤ 0.2 |
| QYTH | ≤ 0.2 |
| AHHR | ≤ 0.2 |
| WHVR | ≤ 0.2 |
| GFVI | ≤ 0.2 |
| EARG | ≤ 0.2 |

| Variant | one-hybrid fitness for binding parS DNA |
| --- | --- |
| NVRG | ≤ 0.2 |
| QIHE | ≤ 0.2 |
| YQDA | ≤ 0.2 |
| GNDP | ≤ 0.2 |
| NSPR | ≤ 0.2 |
| PSID | ≤ 0.2 |
| VLIM | ≤ 0.2 |
| CQRG | ≤ 0.2 |
| LEDE | ≤ 0.2 |
| RRSG | 0.711 |
| SGMT | ≤ 0.2 |
| IHSS | ≤ 0.2 |
| YVWG | ≤ 0.2 |
| MWPG | ≤ 0.2 |
| GLRQ | ≤ 0.2 |
| MFDN | ≤ 0.2 |
| QPHH | ≤ 0.2 |
| PSSH | ≤ 0.2 |
| QSAR | ≤ 0.2 |
| ANSM | ≤ 0.2 |
| VNVL | ≤ 0.2 |
| HDRK | ≤ 0.2 |
| LTSK | ≤ 0.2 |
| WIAV | ≤ 0.2 |

| Variant | one-hybrid fitness for binding parS DNA |
| --- | --- |
| TETP | ≤ 0.2 |
| LQGR | ≤ 0.2 |
| GPFG | ≤ 0.2 |
| CCQT | ≤ 0.2 |
| TYIN | ≤ 0.2 |
| DYTT | ≤ 0.2 |
| PWAE | ≤ 0.2 |
| ERYA | ≤ 0.2 |
| RAFS | 1.02 |
| HYKV | ≤ 0.2 |
| LYFV | ≤ 0.2 |
| QVPA | ≤ 0.2 |
| QKIV | ≤ 0.2 |
| WLRP | ≤ 0.2 |
| TCHW | ≤ 0.2 |
| AVVT | ≤ 0.2 |
| CMDS | ≤ 0.2 |
| SWLE | ≤ 0.2 |
| QSAS | ≤ 0.2 |
| SKHE | ≤ 0.2 |
| YQTL | ≤ 0.2 |
| WYDS | ≤ 0.2 |
| CMHR | ≤ 0.2 |
| LPLC | ≤ 0.2 |

| Variant | one-hybrid fitness for binding parS DNA |
| --- | --- |
| ETGT | ≤ 0.2 |
| VFMR | ≤ 0.2 |
| VWLR | ≤ 0.2 |
| ANIT | ≤ 0.2 |
| ASHF | ≤ 0.2 |
| GITV | ≤ 0.2 |
| CAVI | ≤ 0.2 |
| IAYC | ≤ 0.2 |
| QYQI | ≤ 0.2 |
| VLRV | ≤ 0.2 |
| SDLT | ≤ 0.2 |
| VGAE | ≤ 0.2 |
| PLPK | ≤ 0.2 |
| QIHV | ≤ 0.2 |
| KAFR | ≤ 0.2 |
| PMPQ | ≤ 0.2 |
| HVEG | ≤ 0.2 |
| VCTS | ≤ 0.2 |
| SDTD | ≤ 0.2 |
| TVHQ | ≤ 0.2 |
| PPDA | ≤ 0.2 |
| LDMD | ≤ 0.2 |
| SHRH | ≤ 0.2 |
| LRLV | ≤ 0.2 |

| Variant | one-hybrid fitness for binding parS DNA |
| --- | --- |
| PAIY | ≤ 0.2 |
| SCEV | ≤ 0.2 |
| IWEL | ≤ 0.2 |
| QHYA | ≤ 0.2 |
| CTRW | ≤ 0.2 |
| PTHR | ≤ 0.2 |
| LALL | ≤ 0.2 |
| GRET | ≤ 0.2 |
| NPNY | ≤ 0.2 |
| EQRL | ≤ 0.2 |
| WIER | ≤ 0.2 |
| GHEG | ≤ 0.2 |
| PYTE | ≤ 0.2 |
| LKTS | ≤ 0.2 |
| VSWE | ≤ 0.2 |
| YEGG | ≤ 0.2 |
| HTIL | ≤ 0.2 |
| ATRM | ≤ 0.2 |
| LGVV | ≤ 0.2 |
| ALCW | ≤ 0.2 |
| PVSH | ≤ 0.2 |
| HLVT | ≤ 0.2 |
| IEDS | ≤ 0.2 |
| LMDW | ≤ 0.2 |

| Variant | one-hybrid fitness for binding parS DNA |
| --- | --- |
| CLQI | ≤ 0.2 |
| VHNC | ≤ 0.2 |
| GVMA | ≤ 0.2 |
| LCTY | ≤ 0.2 |
| KRAI | ≤ 0.2 |
| QINT | ≤ 0.2 |
| QRLK | ≤ 0.2 |
| LQYH | ≤ 0.2 |
| CTCS | ≤ 0.2 |
| HRMN | ≤ 0.2 |
| KDYF | ≤ 0.2 |
| PCDT | ≤ 0.2 |
| AYES | ≤ 0.2 |
| YQND | ≤ 0.2 |
| SKFM | ≤ 0.2 |
| VSQH | ≤ 0.2 |
| QIFS | ≤ 0.2 |
| SREY | ≤ 0.2 |
